# Experimental data as given in the supplement of paper PMC10037445.
# Over roughly 2,900 compounds, “NF-kB SEAP reporter activity, fold change vs agonist alone” has its median near 0.99; the highest 2% begin near 2.6. The list shows a part of the results.
# Tests used:
# [1] = tested on: RAW-Dual; assay: NF-kB SEAP reporter activity, fold change vs agonist alone; higher = enhanced NF-kB activity
# In short: (§1)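 Supernatant from RAW-Dual macrophages was read after 20 hours for IRF by QuantiLuc luminescence and for NF-κB by QuantiBlue absorbance at 620 nm. The cells (50,000 cells/well in DMEM, 384-well plates, 37 °C, 5% CO2) had received 50 nL of library stock by pin tool and, 1 h later, a PRR agonist. Reporter activity is expressed relative to agonist-alone wells as fold change, and wells were flagged cytotoxic if IncuCyte confluency was under 70% of agonist controls in both mask sets.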
# [2] = tested on: RAW-Dual; assay: NF-kB SEAP reporter activity, fold change vs agonist alone; cytotoxicity flag (confluency mask): not cytotoxic; higher = enhanced NF-kB activity
# In short: as §1
# [3] = tested on: RAW-Dual; assay: NF-kB SEAP reporter activity, fold change vs agonist alone; cytotoxicity flag (confluency mask): cytotoxic (confluency <70% of control); higher = enhanced NF-kB activity
# In short: as §1
# [4] = library stock concentration (final ~1000-fold dilution): 10 mM, cytotoxicity flag (confluency mask): not cytotoxic, agonist: MPLA (TLR4) […]
# [5] = agonist: ODN 1826 (TLR9) 0.5 ug/mL
# [6] = agonist: Pam2CSK4 (TLR2/6) 0.1 ug/mL
# [7] = agonist: Pam3CSK4 (TLR2/1) 0.1 ug/mL
# [8] = library stock concentration (final ~1000-fold dilution): 10 mM, cytotoxicity flag (confluency mask): not cytotoxic, agonist: Imiquimod (TLR7) […]
# [9] = library stock concentration (final ~1000-fold dilution): 10 mM water, cytotoxicity flag (confluency mask): not cytotoxic, agonist: MPLA (TLR4) […]
# [10] = library stock concentration (final ~1000-fold dilution): 10 mM, cytotoxicity flag (confluency mask): cytotoxic (confluency <70% of control), agonist: Imiquimod (TLR7) […]
# [11] = library stock concentration (final ~1000-fold dilution): 10 mM, cytotoxicity flag (confluency mask): cytotoxic (confluency <70% of control), agonist: MPLA (TLR4) […]
structure (smiles),measurement,setting,value
CC(C)[N+](C)(CCOC(=O)C1c2ccccc2Oc2ccccc21)C(C)C,NF-kB SEAP reporter activity,[1]; [4],1.08
CC(C)[N+](C)(CCOC(=O)C1c2ccccc2Oc2ccccc21)C(C)C (library stock concentration (final ~1000-fold dilution): 10 mM),NF-kB SEAP reporter activity,[2]; agonist: LPS (TLR4) 0.1 ug/mL,0.964
same,NF-kB SEAP reporter activity,[2]; [5],0.96
same,NF-kB SEAP reporter activity,[2]; [6],0.905
same,NF-kB SEAP reporter activity,[2]; [7],0.976
COc1ccccc1Nc1nc(-c2sc(NC(C)=O)nc2C)cs1 (library stock concentration (final ~1000-fold dilution): 10 mM),NF-kB SEAP reporter activity,[2]; agonist: LPS (TLR4) 0.1 ug/mL,0.496
same,NF-kB SEAP reporter activity,[2]; [5],0.464
same,NF-kB SEAP reporter activity,[2]; [6],0.318
same,NF-kB SEAP reporter activity,[2]; [7],0.245
COc1ccccc1Nc1nc(-c2sc(NC(C)=O)nc2C)cs1,NF-kB SEAP reporter activity,[1]; [8],0.623
same,NF-kB SEAP reporter activity,[1]; [4],0.687
CCCC1CC(C(=O)NC(C(C)Cl)C2OC(SC)C(OP(=O)(O)O)C(O)C2O)N(C)C1 (stereo unspecified) (library stock concentration (final ~1000-fold dilution): 10 mM water),NF-kB SEAP reporter activity,[2]; agonist: LPS (TLR4) 0.1 ug/mL,1.09
same,NF-kB SEAP reporter activity,[2]; [5],1.11
same,NF-kB SEAP reporter activity,[2]; [6],1.17
same,NF-kB SEAP reporter activity,[2]; [7],1.12
CCCC1CC(C(=O)NC(C(C)Cl)C2OC(SC)C(OP(=O)(O)O)C(O)C2O)N(C)C1 (stereo unspecified),NF-kB SEAP reporter activity,"[1]; library stock concentration (final ~1000-fold dilution): 10 mM water, cytotoxicity flag (confluency mask): not cytotoxic, agonist: Imiquimod (TLR7) […]",0.893
same,NF-kB SEAP reporter activity,[1]; [9],1.06
COc1ccc(Cn2ccc3ccc(C(=O)NO)cc32)cc1 (library stock concentration (final ~1000-fold dilution): 10 mM),NF-kB SEAP reporter activity,[2]; agonist: LPS (TLR4) 0.1 ug/mL,0.996
same,NF-kB SEAP reporter activity,[2]; [5],0.62
same,NF-kB SEAP reporter activity,[2]; [6],0.788
same,NF-kB SEAP reporter activity,[2]; [7],0.588
COc1ccc(Cn2ccc3ccc(C(=O)NO)cc32)cc1,NF-kB SEAP reporter activity,[1]; [8],0.789
same,NF-kB SEAP reporter activity,[1]; [4],0.903
C#Cc1cccc(Nc2ncnc3cc(OCCOC)c(OCCOC)cc23)c1,NF-kB SEAP reporter activity,[1]; [8],1.02
same,NF-kB SEAP reporter activity,[1]; [4],1.88
C#Cc1cccc(Nc2ncnc3cc(OCCOC)c(OCCOC)cc23)c1 (library stock concentration (final ~1000-fold dilution): 10 mM),NF-kB SEAP reporter activity,[2]; agonist: LPS (TLR4) 0.1 ug/mL,4.68
same,NF-kB SEAP reporter activity,[2]; [5],1.33
same,NF-kB SEAP reporter activity,[2]; [6],0.887
same,NF-kB SEAP reporter activity,[2]; [7],0.935
CC(C)Cc1ccc([C@@H](C)C(=O)O)cc1,NF-kB SEAP reporter activity,[1]; [8],0.906
same,NF-kB SEAP reporter activity,[1]; [4],1
CC(C)Cc1ccc([C@@H](C)C(=O)O)cc1 (library stock concentration (final ~1000-fold dilution): 10 mM),NF-kB SEAP reporter activity,[2]; agonist: LPS (TLR4) 0.1 ug/mL,1.16
same,NF-kB SEAP reporter activity,[2]; [5],1.17
same,NF-kB SEAP reporter activity,[2]; [6],1.09
same,NF-kB SEAP reporter activity,[2]; [7],1.1
O=C1C[C@@H](c2ccc(O)c(O)c2)Oc2cc(O)cc(O)c21,NF-kB SEAP reporter activity,[1]; [8],1.12
same,NF-kB SEAP reporter activity,[1]; [4],1.5
O=C1C[C@@H](c2ccc(O)c(O)c2)Oc2cc(O)cc(O)c21 (library stock concentration (final ~1000-fold dilution): 10 mM),NF-kB SEAP reporter activity,[2]; agonist: LPS (TLR4) 0.1 ug/mL,1.16
same,NF-kB SEAP reporter activity,[2]; [5],0.787
same,NF-kB SEAP reporter activity,[2]; [6],0.563
same,NF-kB SEAP reporter activity,[2]; [7],0.744
CS(=O)(=O)O.O=C(NC1CCN(CCCCC2(C(=O)NCC(F)(F)F)c3ccccc3-c3ccccc32)CC1)c1ccccc1-c1ccc(C(F)(F)F)cc1 (library stock concentration (final ~1000-fold dilution): 10 mM),NF-kB SEAP reporter activity,[3]; agonist: LPS (TLR4) 0.1 ug/mL,0.339
same,NF-kB SEAP reporter activity,[3]; [5],0.219
same,NF-kB SEAP reporter activity,[3]; [6],0.378
same,NF-kB SEAP reporter activity,[3]; [7],0.162
CS(=O)(=O)O.O=C(NC1CCN(CCCCC2(C(=O)NCC(F)(F)F)c3ccccc3-c3ccccc32)CC1)c1ccccc1-c1ccc(C(F)(F)F)cc1,NF-kB SEAP reporter activity,[1]; [10],0.907
same,NF-kB SEAP reporter activity,[1]; [11],0.931
O=C(/C=C/c1cncc(F)c1)c1c(-c2ccccc2)c2cc(Cl)ccc2[nH]c1=O (library stock concentration (final ~1000-fold dilution): 10 mM),NF-kB SEAP reporter activity,[3]; agonist: LPS (TLR4) 0.1 ug/mL,0.257
same,NF-kB SEAP reporter activity,[3]; [5],0.212
same,NF-kB SEAP reporter activity,[3]; [6],0.0981
same,NF-kB SEAP reporter activity,[3]; [7],0.253
O=C(/C=C/c1cncc(F)c1)c1c(-c2ccccc2)c2cc(Cl)ccc2[nH]c1=O,NF-kB SEAP reporter activity,[1]; [10],0.157
same,NF-kB SEAP reporter activity,[1]; [11],0.259
CC1COCCN1c1cc(-c2ccnn2C)c2ccnc(-c3ccn[nH]3)c2n1.Cl (stereo unspecified),NF-kB SEAP reporter activity,[1]; [8],1.48
same,NF-kB SEAP reporter activity,[1]; [4],2.05
CC1COCCN1c1cc(-c2ccnn2C)c2ccnc(-c3ccn[nH]3)c2n1.Cl (stereo unspecified) (library stock concentration (final ~1000-fold dilution): 10 mM),NF-kB SEAP reporter activity,[2]; agonist: LPS (TLR4) 0.1 ug/mL,1.89
same,NF-kB SEAP reporter activity,[2]; [5],0.957
same,NF-kB SEAP reporter activity,[2]; [6],1.09
same,NF-kB SEAP reporter activity,[2]; [7],1.19
Cc1ccc(-c2nn(C(C)(C)C)c3ncnc(N)c23)cc1,NF-kB SEAP reporter activity,[1]; [8],1.09
same,NF-kB SEAP reporter activity,[1]; [4],1.15
Cc1ccc(-c2nn(C(C)(C)C)c3ncnc(N)c23)cc1 (library stock concentration (final ~1000-fold dilution): 10 mM),NF-kB SEAP reporter activity,[2]; agonist: LPS (TLR4) 0.1 ug/mL,1.17
same,NF-kB SEAP reporter activity,[2]; [5],1.21
same,NF-kB SEAP reporter activity,[2]; [6],0.503
same,NF-kB SEAP reporter activity,[2]; [7],0.351
NCCCC(=O)O (library stock concentration (final ~1000-fold dilution): 10 mM water),NF-kB SEAP reporter activity,[2]; agonist: LPS (TLR4) 0.1 ug/mL,1.03
same,NF-kB SEAP reporter activity,[2]; [5],1.1
same,NF-kB SEAP reporter activity,[2]; [6],1.08
same,NF-kB SEAP reporter activity,[2]; [7],1.15
NCCCC(=O)O,NF-kB SEAP reporter activity,[1]; [9],1
CC(C)CC(NP(=O)(O)OC1OC(C)C(O)C(O)C1O)C(=O)NC(Cc1c[nH]c2ccccc12)C(=O)O (stereo unspecified),NF-kB SEAP reporter activity,[1]; [8],0.973
same,NF-kB SEAP reporter activity,[1]; [4],1.03
CC(C)CC(NP(=O)(O)OC1OC(C)C(O)C(O)C1O)C(=O)NC(Cc1c[nH]c2ccccc12)C(=O)O (stereo unspecified) (library stock concentration (final ~1000-fold dilution): 10 mM),NF-kB SEAP reporter activity,[2]; agonist: LPS (TLR4) 0.1 ug/mL,1.04
same,NF-kB SEAP reporter activity,[2]; [5],0.986
same,NF-kB SEAP reporter activity,[2]; [6],1.05
same,NF-kB SEAP reporter activity,[2]; [7],1.41
